Sequences and labels used below:
B1: PspF_(1−275)G133A (domain or fragment)
chain: not shown
B2: PspF_(1−275)P137T (domain or fragment)
chain: not shown
B3: PspF_(1−275)V132A (domain or fragment)
chain: not shown
B4: PspF_(1−275)Q139A (domain or fragment)
chain: not shown
B5: PspF_(1−275)L138A (domain or fragment)
chain: not shown
B6: PspF_(1−275)S135A (domain or fragment)
chain: not shown
B7: PspF_(1−275)P137A (domain or fragment)
chain: not shown
B8: PspF_(1−275)Q136A (domain or fragment)
chain: not shown

For orientation: stoichiometry N means a count of units in the complex or per binding partner.

The first data set deals with the molecule itself. Put plainly: SEC. Background: SEC sorts molecules by how far they enter the pores of the column.
Take B1: the “stoichiometry N” value worked out at 6.
For B2, the “stoichiometry N” value is 6.
As for B3, the “stoichiometry N” value was 6.
As to B4, the “stoichiometry N” value was determined as 6.
Regarding B5, the “stoichiometry N” value worked out at 6.
Take B6: the “stoichiometry N” value was determined as 6.
For B7, the “stoichiometry N” value was 6.
Consider B8, for which the “stoichiometry N” value was 6.

Another data set deals with the molecule itself. Put plainly: SEC. This is another data set of the same source.
Take B1: the “stoichiometry N” value is 2.
Regarding B2, the “stoichiometry N” value was 2.
Take B3: the “stoichiometry N” value is 2.
Still for that read-out and setting: for B4 the value was 2; for B5, 2.
Still for that read-out and setting: for B6 the value was 2; for B7, 2.
Regarding B8, the “stoichiometry N” value was found to be 2.

The values above are taken from publication PMC2745333 (Molecular Microbiology, 2009).
